In ChEMBL document CHEMBL4888484, “Replenishing the malaria drug discovery pipeline: Screening and hit evaluation of the MMV Hit Generation Library 1 (HGL1) against asexual blood stage Plasmodium falciparum ,using a nano luciferase reporter read-out” (2022):
The campaign covered roughly 150,000 compounds. About 540 (0.36%) showed an effect of 50% or more. The list shows a part of the results.

The compounds below were run on Plasmodium falciparum (assay: Primary screen in NF54 nanoGlo assay, in single point, at 2uM, 72h; a lower Z score goes with more inhibition). Details: timepoint 72 hour.
Assay type: functional, Erythrocyte

Row | Compound | % Inhibition | Z score
1 | COc1ccc(CNC2CCCC2)cc1-c1cccnc1 | -9% | 1.26
2 | CCOc1cc2sc(N3CCC(C(=O)N4CCN(c5cccc(OC)c5)CC4)CC3)nc2cc1Br | -5% | 0.65
3 | O=C(CCN1CCCCO1)NC[C@]1(c2ccc(F)cc2)CCOC1 | -12% | 2.48
4 | CCc1nccn1[C@H]1CCCN(S(=O)(=O)CCCC(C)(C)C)C1 | 17% | -2.09
5 | CCN(C(=O)[C@@H]1CCCN1S(=O)(=O)c1cc2c(cc1C)NC(=O)CO2)c1cccc(C)c1 | -3% | 0.42
6 | CN(C)S(=O)(=O)N1CCC(Oc2ccc(C(=O)NC3CCCCCCC3)cc2)CC1 | -15% | 1.33
7 | COc1ccc([C@@H]2CCCN2S(=O)(=O)N2CCCCCC2)cc1OC | -5% | 0.69
8 | Cc1cccc(NC(=O)N2CCCCCC2)n1 | 32% | -0.63
9 | O=C(NCc1nnc2cc(C(F)(F)F)ccn12)NC1CCCCC1 | 8% | -1.02
10 | CCC(C)(C)OCC(=O)N1CC[C@H](Nc2ccc3nc(C)cn3n2)C1 | -12% | 1.59
11 | Cc1nccn1C1CCCN(C(C)C(=O)NC2(C#N)CCCCC2)C1 (stereo not given) | 4% | -0.47
12 | CCOc1ccc(Oc2cc(NC(=O)COc3ccccc3C)cc(NC(=O)COc3ccccc3C)c2)cc1 | 2% | -0.37
13 | COc1ccc(C(=O)N2CC[C@@H]3CN(Cc4cccnc4)[C@@H]3C2)c(C)c1 | -3% | 0.46
14 | O=C(CN1C(=O)CCn2nc(-c3cccc(Cl)c3)cc21)NCCCN1CCCC1=O | -14% | 1.41
15 | O=C(O)C[C@@H]1CCN(Cc2ccccc2)C[C@@H]1Cc1nc2ccccc2[nH]1 | 24% | -2.68
16 | Cc1nc(-c2nc(Cc3ccsc3)no2)c[nH]1 | -6% | 1.24
17 | CC(C)c1nc(NCCCOC2CCCCC2)no1 | 5% | -0.71
18 | Cc1ccnc(NS(=O)(=O)c2ccc(NC(=O)c3sc4ccccc4c3Cl)cc2)n1 | 2% | -0.33
19 | Cc1nn(C(C)C)c(C)c1CN(C)C(=O)c1cc(C#N)c[nH]1 | 0% | -0.07
20 | CN1CCN(c2nc(-c3cc(Cl)cc(Cl)c3)no2)CC1 | -18% | 1.93
